Screen size: about 73,000 compounds; about 1,800 (2.5%) were called active. The shares of active, inactive and inconclusive entries below differ from those in the screen. Calls come from the whole dose curve; as a rule, active = well fitted activation curve with a large enough effect; inconclusive = small, poorly fitted or top-dose-only effect; inactive = no such curve, though single readings can be large or run the other way. Potencies of inconclusive entries are left out as doubtful fits.
Test: qHTS Assay for Agonists of the Thyroid Stimulating Hormone Receptor: Activators of Intracellular cAMP Concentrations in Parental HEK 293; note: nearly all actives have a fitted effect of over 55% in size; for activation: % of control where 0% means no effect
Settings: parental HEK293 CNG cAMP sensor, membrane potential fluorescence; activation: at 57.1 µM (top of the series) unless noted
Outline: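 Parental HEK 293 cells stably expressing a modified CNG channel (no TSHR) report cAMP rise as membrane depolarization. Membrane potential dye with 100 uM RO 20-1724 was loaded for 60 min at room temperature, then compound added for 30 min; fluorescence read at 590 nm.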
Potency is the fitted concentration of half-maximal effect; tags give direction and shape of the fitted curve.

Row | Compound | Potency | activation
1 | O=C(c1cc2nc(-c3ccco3)cc(C(F)(F)F)n2n1)N1CCN(c2ccc(F)cc2)CC1 | inactive | –
2 | CCOc1ccc(-n2c(COc3ccc(C)cc3)nnc2SCC(N)=O)cc1 | inactive | –
3 | COC(=O)C(C)N(C#N)c1nc(C)nc(C)n1 (configuration not stated) | inconclusive [activator, single point] | –
4 | COc1ccc(OC)c(NC(=O)CN(c2ccc(C)cc2)S(=O)(=O)c2c(C)noc2C)c1 | inconclusive [activator, partial curve] | –
5 | CCOC(=O)N1CCN(S(=O)(=O)c2ccc(OC)c3ccccc23)CC1 | inconclusive [activator, single point] | –
6 | CCC(c1nnnn1C(C)(C)CC)N(CCCO)Cc1cc2cccc(C)c2[nH]c1=O (configuration not stated) | inconclusive [activator, partial curve] | –
7 | c1csc(CNc2ncncc2-c2ccc3c(c2)OCO3)c1 | inconclusive [activator, partial curve] | –
8 | CCOC(=O)C1=C(C)N2C(=C(C#N)[C@@H]1c1ccc(C(=O)OC)cc1)SC[C@@]2(O)C(C)(C)C | inconclusive [activator, partial curve] | –
9 | COCCn1c(=O)c(-c2ccccc2)nc2cnc(Oc3ccc(OC)cc3)nc21 | inconclusive [activator, full curve] | –
10 | O=C(c1csnn1)N1CCC2(CCN(Cc3cc(C(F)(F)F)cc(C(F)(F)F)c3)CC2)CC1 | inactive | –
11 | CCCC(=O)Nc1cccc(NC(=O)c2ccc3c(c2)OCCO3)c1 | inactive | –
12 | Nc1nc2ccc([N+](=O)[O-])cc2s1 | inactive | –
13 | Nc1c(N2CCCC2)cc(Cl)c2nonc12 | inactive | –
14 | COC(=O)c1ccccc1NC(=O)C1CC(=O)N(c2ccc(F)cc2)C1 (configuration not stated) | active: 25.1 µM | –
15 | CCNc1ncc2nc(-c3ccc(OC)cc3)c(=O)n(Cc3cccc(OC)c3)c2n1 | inconclusive [activator, partial curve] | –
16 | Cc1cc(N)c(NC2=CC(=O)CC(C)(C)C2)cc1C | inconclusive [activator, partial curve] | –
17 | O=c1c(-c2ccccc2)nc2cnc(N3CCOCC3)nc2n1Cc1ccc(F)cc1 | inactive | –
18 | Cn1c(=O)c2[nH]c(CN(Cc3ccccc3)Cc3ccccc3)nc2n(C)c1=O | inconclusive [activator, partial curve] | –
19 | CC1CN(S(=O)(=O)c2ccc(Cl)c(C(F)(F)F)c2)CC(C)O1 (configuration not stated) | inconclusive [activator, partial curve] | –
20 | Cc1ccc2nc(N/N=C\c3cccc(C)n3)cc(C)c2c1 | – | inactive: 19.3% [at 11.4 µM]
21 | O=c1c2ccccc2nnn1CSc1nnc(C2COc3ccccc3O2)n1-c1ccccc1 (configuration not stated) | inconclusive [activator, single point] | –
22 | CCc1nnc(NC(=O)CSc2nnc(Cc3ccc(OC)cc3)o2)s1 | inconclusive [activator, single point] | –
23 | O=C(O)C1C2CCC(O2)C1C(=O)NCCC1=CCCCC1 (configuration not stated) | inactive | –
24 | COc1ccccc1NC(=O)Cn1nc(C(F)(F)F)c2c1CCCC2 | active: 20 µM | –

Row | Compound | Potency | activation
25 | O=C(CSc1cccc2cccnc12)N1CCCC1 | inactive | –
26 | Cc1ccc(S(=O)(=O)N2CCCC(C(=O)N(Cc3cccs3)C3CC3)C2)cc1 (configuration not stated) | inconclusive [activator, partial curve] | –
27 | O=C(CSc1nc2ccccc2c(=O)n1-c1ccccc1)NCc1ccco1 | active: 25.1 µM | –
28 | COc1ccc(-n2c(=O)c(-c3cccs3)nc3cnc(Nc4cccc(OC)c4)nc32)cc1 | inconclusive [activator, single point] | –
29 | O=c1n(-c2ccccc2)c(=O)n2n1CC[C@H]1/C(=N\OCc3ccccc3)[C@H]3O[C@@H]3[C@@H](O)[C@@H]12 | – | inactive: 1.56% [at 11.4 µM]
30 | CCCCOC(=O)Nc1sc2c(c1C(=O)OC)CCC2 | inconclusive [activator, single point] | –
31 | c1ccc(-c2nc(CSc3nnc(-c4cccs4)o3)cs2)cc1 | inconclusive [activator, single point] | –
32 | COCCN(C(=O)c1csnn1)C(C(=O)NC1CCCCC1)c1sccc1C (configuration not stated) | inconclusive [activator, single point] | –
33 | COC(=O)CCCC(=O)O | inconclusive [activator, single point] | –
34 | COC(=O)c1ccc(CS(=O)(=O)c2ccccc2C)o1 | inactive | –
35 | CC(C)CCNC(=O)CN(CCCN1CCOCC1)C(=O)Cn1nnc(-c2ccc(F)cc2)n1 | inconclusive [activator, full curve] | –
36 | CC1(C)Cc2c(sc3nc(SCC(=O)N4CCOCC4)nc(N)c23)CO1 | inconclusive [activator, single point] | –
37 | COC(=O)c1sc(=S)sc1C(=O)OC | inconclusive [activator, single point] | –
38 | O=C1CC2CS(=O)(=O)CC2N1c1ccc(Oc2ccccc2)cc1 (configuration not stated) | inactive | –
39 | CCOC(=O)c1cc2sccc2n1CC(=O)N1c2ccccc2CC1C (configuration not stated) | inconclusive [activator, partial curve] | –
40 | CCOc1ccc(-c2nnc(-c3snc(-c4ccc(F)cc4)c3N=CN(C)C)o2)cc1 | active: 15.8 µM | –
41 | CCCCS(=O)CC(COc1ccc(Cl)cc1)OC(=O)c1ccccc1 (configuration not stated) | inconclusive [activator, partial curve] | –
42 | CN(C)S(=O)(=O)c1ccc2c(c1)nc(CCC(=O)NCC1CCCCC1)n2C | inconclusive [activator, single point] | –
43 | C=CCOc1ccc(/C(O)=C2\C(=O)C(=O)N(CCCOC)C2c2ccc(O)c(OC)c2)cc1 (configuration not stated) | inactive | –
44 | CCOC(=O)CNc1ccc2c(c1)OCO2 | inactive | –
45 | Cc1cccc(OCCn2c(NC(=O)c3ccco3)nc3ccccc32)c1 | active: 31.6 µM | –
46 | O=C(Nc1ccc(Cl)cn1)c1cc2ccccc2o1 | inconclusive [activator, single point] | –
47 | Cc1cc(C)c2cc(CN(CC3CCCO3)S(=O)(=O)c3ccc4c(c3)OCCO4)c(=O)[nH]c2c1 (configuration not stated) | inconclusive [activator, single point] | –
